Reference: ChEMBL document CHEMBL5308541, “MAIP: An Open-Source Tool to Enrich High-Throughput Screening Output and Identify Novel, Druglike Molecules with Antimalarial Activity” (ACS Med Chem Lett, 2023)
Hit rate of the full screen: of about 150,000 compounds, about 540 (0.36%) showed an effect of 50% or more. The list shows a part of the results.

The compounds below were run on Plasmodium falciparum (assay: Primary screen in NF54 nanoGlo assay, in single point, at 2uM, 72h; a lower Z score goes with more inhibition). Settings: timepoint 72 hour.
Type: functional, Erythrocyte

| SMILES | % Inhibition [%] | Z score |
| --- | --- | --- |
| O=C(NCCc1c[nH]cn1)c1cccc(-c2ccc(CN3CCCC3)cc2)c1 | -8 | 1.18 |
| C[C@@H](CCNc1ccc(-c2nc(-c3cccc(F)c3)no2)cn1)N1CCCCCC1 | -13 | 2.19 |
| O=C(Nc1cnc(N2CCNCC2)nc1)N1CCN(C2CC3CCC2C3)CC1 (centres undefined) | -7 | 1.18 |
| Cc1cc(C(=O)NCC2(C3CC3)CCC2)c(C)s1 | -10 | 2 |
| C[C@H](O)CN1CCN(CC(=O)NC2CCN(C3CC3)CC2)CC1 | -5 | 0.86 |
| CCN(CC)c1nc(/C=C\c2ccccc2Cl)nc2ccc(OC)cc12 | -20 | 2.97 |
| C[C@H](Nc1ncnc2c1CCNCC2)c1cnn(-c2ccc(F)cc2)c1 | -13 | 2.26 |
| O=C(NCC1CCN(c2noc(C3CC3)n2)CC1)c1cc(-c2ccccc2)[nH]n1 | -11 | 1.87 |
| O=C(Nc1cccc(-c2ccn[nH]2)c1)N1CCC(N2CCOCC2)CC1 | 1 | -0.15 |
| CN1CCC[C@H](NC2CCN(CC3CC3)CC2)C1 | 4 | -0.73 |
| Cc1[nH]c2ccccc2c1CN1CCC(Oc2ccccc2C(=O)N2CCCCC2)CC1 | 2 | -0.42 |
| CO[C@H]1C[C@@H](CN2CCCC2)N(c2ccnc(N3CCOCC3)n2)C1 | -2 | 0.35 |
| CN([C@](C)(C#N)C1CC1)S(C)(=O)=O | -7 | 1.42 |
| CCc1cnc(NCC[C@H]2CCCCN2C)nc1 | 1 | -0.2 |
| c1ccc(-c2nccc(N3CCC(Nc4cccnn4)CC3)n2)cc1 | -3 | 0.54 |
| N#Cc1ccc(CN2CCN(c3ncnc4cc[nH]c34)CC2)c(F)c1 | -12 | 1.79 |
| O[C@H]1CCCN(c2ccnc(N3CCN(c4nsc5ccccc45)CC3)n2)C1 | -6 | 1.05 |
| CCN1CC[C@H](CN2CCOC3(CCN(Cc4c[nH]cn4)CC3)C2)C1 | -6 | 1.12 |
| O=C(c1ccc(-c2ccsc2)cc1)N1CC(Nc2ncccn2)C1 | 2 | -0.38 |

| SMILES | % Inhibition [%] | Z score |
| --- | --- | --- |
| CCN(C[C@H]1CCN(c2cc(N3CCCC3)ncn2)C1)CC(F)(F)F | -7 | 1.54 |
| c1ccc(CN2CCC[C@H](CNC3CCN(c4ccc5c(c4)OCO5)CC3)C2)cc1 | 14 | -2.53 |
| N#CC1CCCC(N[C@H]2c3ccccc3C[C@H]2O)C1 (some centres undefined) | 4 | -0.8 |
| O=C1NCCCC[C@@H]1NC1CCN(c2cccc(-c3cscn3)c2)CC1 | -10 | 1.75 |
| CC(=O)N1CC(Nc2ccnc3ccncc23)CCC1C(F)(F)F (centres undefined) | 2 | -0.34 |
| Cc1cc(F)ccc1N1CCC(N2CCC[C@H](N3CCN(c4ccccc4)CC3)C2)CC1 | 5 | -0.8 |
| C[C@@H](c1cc2ccccc2o1)N(C)CCC(=O)N1CCN(c2ccc(F)cc2)CC1 | -2 | 0.48 |
| FC(F)(F)COc1cccc(CN[C@H]2CCCNCC2)c1 | 26 | -3.98 |
| CN1CCC(CNC(=O)N(C)C2Cc3ccccc3C2)(N(C)C)CC1 | -2 | 0.4 |
| CCN(CC1CCN(C2CCN(C)CC2)CC1)C[C@@H](C)CCC=C(C)C | 4 | -0.65 |
| Clc1ccc(Nc2nc3c(Br)cccc3o2)cc1 | -1 | 0.15 |
| Fc1cc2ncnc(NCc3ccnc(-n4ccnc4)c3)c2cc1F | -10 | 1.9 |
| O=C(NCc1cccc2[nH]ccc12)C1CCN(C2CCOCC2)CC1 | -5 | 1.08 |
| Cc1ccc2c(c1)c1nnc(-c3ccccc3)c-1cn2Cc1ccccc1F | -3 | 0.47 |
| COc1ccc2oc(C)c(C(=O)N[C@@H](C)c3cccnc3)c2c1 | -2 | 0.28 |
| CN1CCN(CCCN(C)c2ncnc3[nH]ccc23)CC1 | -16 | 2.5 |
| CCN1CCN(c2cccc(NCc3cnc4ccccn34)c2)CC1 | 1 | -0.2 |
| Cc1cc(Nc2nc(C(=O)NCC[C@H](C)N3CCCCCC3)cc3occc23)ccc1Br | -3 | 0.57 |
